Consider 27 cell lines from the supplement of paper PMC4967469.

By IC50 is meant the dose at which the fit gives 50% viability; a limit (>, <) means that the fit lies beyond the doses tested. AUC, from the same fit, is the share of area under the viability curve across the 256-fold dose range; values near 1 show little effect. Where an entry number is given, a second screen of the drug exists; the two often differ.

Compound in this assay: CS(=O)(=O)N1CCN(Cc2cc3nc(-c4cccc5[nH]ncc45)nc(N4CCOCC4)c3s2)CC1 [GDC0941]
Nature of the assay: Viability of human cancer cell lines after 72 h of drug (GDSC screen). The conditions noted are these: screen: GDSC drug entry 1058. Here is the method: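 Human cancer cell lines in 384-well plates, medium with 10% serum, drug for 72 h over a 256-fold dose range (nine 2-fold or five 4-fold steps up to the top dose). Adherent lines were fixed and stained with the nucleic acid dye Syto60, suspension lines read with resazurin; signal relative to control wells, capped at 0 and 100%. One two-parameter sigmoid per drug and line, fitted in a mixed model over all curves with the slope shared within a line.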
As for “JM1 (B-cell lymphoma, suspension, top dose 4 µM)”, the AUC stood at 0.893 and the IC50 was 3.56 µM.

Consider “JSC-1 (B-cell lymphoma, suspension, top dose 4 µM)”, for which the AUC is 0.977 and the IC50 was over 4 µM.

Consider “JURL-MK1 (chronic myeloid leukaemia, suspension, top dose 4 µM)”, for which the AUC was 0.942 and the IC50 is over 4 µM.

As for “JVM-2 (lymphoid neoplasm, suspension, top dose 4 µM)”, the AUC worked out at 0.614 and the IC50 is 0.553 µM.

“JVM-3 (lymphoid neoplasm, suspension, top dose 4 µM)”: the AUC amounted to 0.807 and the IC50 turned out to be 2.08 µM.

Turning to “JiyoyeP-2003 (Burkitt lymphoma, suspension, top dose 4 µM)”, the AUC was 0.958 and the IC50 is over 4 µM.

Consider “Jurkat (T-cell leukaemia, suspension, top dose 4 µM)”, for which the AUC came to 0.992 and the IC50 was over 4 µM.

Consider K2 (melanoma, adherent, top dose 4 µM), for which the AUC amounted to 0.948 and the IC50 is over 4 µM.

“KARPAS-45 (lymphoblastic leukaemia, suspension, top dose 4 µM)”: the AUC was determined as 0.414 and the IC50 was 0.151 µM.

As for “KARPAS-231 (B-cell leukaemia, suspension, top dose 4 µM)”, the AUC came to 0.234 and the IC50 was determined as 0.0536 µM.

As to “KARPAS-299 (anaplastic large cell lymphoma, suspension, top dose 4 µM)”, the AUC worked out at 0.886 and the IC50 was found to be 3.12 µM.

On to “KARPAS-422 (B-cell lymphoma, suspension, top dose 4 µM)”, for which the AUC turned out to be 0.646 and the IC50 was 0.631 µM.

On to “KARPAS-1106P (B-cell lymphoma, suspension, top dose 4 µM)”, for which the AUC is 0.427 and the IC50 turned out to be 0.164 µM.

“KATOIII (stomach, semi-adherent, top dose 4 µM)”: the AUC is 0.838 and the IC50 worked out at 2.37 µM.

For “KCL-22 (chronic myeloid leukaemia, suspension, top dose 4 µM)”, the AUC stood at 0.983 and the IC50 was over 4 µM.

For the cell line “KE-37 (lymphoblastic leukaemia, suspension, top dose 4 µM)”, the AUC came out at 0.857 and the IC50 came to 2.11 µM.

For the cell line “KELLY (neuroblastoma, adherent, top dose 4 µM)”, the AUC came out at 0.715 and the IC50 amounted to 0.947 µM.

For the cell line “KG-1 (acute myeloid leukaemia, suspension, top dose 4 µM)”, the AUC came out at 0.972 and the IC50 is over 4 µM.

For KGN (ovary, adherent, top dose 4 µM), the AUC was 0.951 and the IC50 was over 4 µM.

“KINGS-1 (glioma, adherent, top dose 4 µM)”: the AUC worked out at 0.826 and the IC50 worked out at 3.76 µM.

“KLE (endometrium, adherent, top dose 4 µM)”: the AUC was found to be 0.855 and the IC50 is over 4 µM.

For “KM12 (large intestine, adherent, top dose 4 µM)”, the AUC was 0.961 and the IC50 is over 4 µM.

With “KM-H2 (Hodgkin lymphoma, suspension, top dose 4 µM)”, the AUC amounted to 0.986 and the IC50 is over 4 µM.

“KMH-2 (thyroid, adherent, top dose 4 µM)”: the AUC was determined as 0.897 and the concentration for half-maximal inhibition (IC50) is over 4 µM.

Regarding “KMOE-2 (acute myeloid leukaemia, suspension, top dose 4 µM)”, the AUC came out at 0.723 and the IC50 is 0.985 µM.

On to “KMRC-1 (kidney, adherent, top dose 4 µM)”, for which the AUC amounted to 0.896 and the IC50 is over 4 µM.

Turning to “KMRC-20 (kidney, adherent, top dose 4 µM)”, the AUC stood at 0.987 and the IC50 was over 4 µM.

For orientation: IC50 means the midpoint of a concentration-inhibition curve.
